{"source": "paper PMC9911399", "about": "“Two distinct binding modes provide the RNA-binding protein RbFox with extraordinary sequence specificity”", "binders": {"B1": {"name": "UAGUGAA (DNA:RNA)", "RNA": "GGGAGACCGGAAUUCAGAUUGUCCUAGUGAAUUAAAUCCCGUCGUAGCCACCA", "DNA 1": "CAATCTGAATTCCGGTCTCCC", "DNA 2": "TGGTGGCTACGACGGGATT"}, "B2": {"name": "ACCUAUA (DNA:RNA)", "RNA": "B1 RNA with U25A, A26C, G27C, G29A, A30U", "DNA 1": "CAATCTGAATTCCGGTCTCCC", "DNA 2": "TGGTGGCTACGACGGGATT"}, "B3": {"name": "GACUGUC (DNA:RNA)", "RNA": "B1 RNA with U25G, G27C, A30U, A31C", "DNA 1": "CAATCTGAATTCCGGTCTCCC", "DNA 2": "TGGTGGCTACGACGGGATT"}, "B4": {"name": "UAUUGUU (DNA:RNA)", "RNA": "B1 RNA with G27U, A30U, A31U", "DNA 1": "CAATCTGAATTCCGGTCTCCC", "DNA 2": "TGGTGGCTACGACGGGATT"}, "B5": {"name": "AAUGGCC (DNA:RNA)", "RNA": "B1 RNA with U25A, G27U, U28G, A30C, A31C", "DNA 1": "CAATCTGAATTCCGGTCTCCC", "DNA 2": "TGGTGGCTACGACGGGATT"}, "B6": {"name": "UUGGCCC (DNA:RNA)", "RNA": "B1 RNA with A26U, U28G, G29C, A30C, A31C", "DNA 1": "CAATCTGAATTCCGGTCTCCC", "DNA 2": "TGGTGGCTACGACGGGATT"}, "B7": {"name": "UACAUCG (DNA:RNA)", "RNA": "B1 RNA with G27C, U28A, G29U, A30C, A31G", "DNA 1": "CAATCTGAATTCCGGTCTCCC", "DNA 2": "TGGTGGCTACGACGGGATT"}, "B8": {"name": "CAUCAAU (DNA:RNA)", "RNA": "B1 RNA with U25C, G27U, U28C, G29A, A31U", "DNA 1": "CAATCTGAATTCCGGTCTCCC", "DNA 2": "TGGTGGCTACGACGGGATT"}, "B9": {"name": "AGCCAAA (DNA:RNA)", "RNA": "B1 RNA with U25A, A26G, G27C, U28C, G29A", "DNA 1": "CAATCTGAATTCCGGTCTCCC", "DNA 2": "TGGTGGCTACGACGGGATT"}}, "note": "Changes are numbered by the printed parent chain; changes in the protein carry UniProt numbers. This is one part of the list."}
{"biological_target": "T1, RBFOX1 RRM (Homo sapiens, UniProt Q9NWB1 109-208)", "T1 sequence": "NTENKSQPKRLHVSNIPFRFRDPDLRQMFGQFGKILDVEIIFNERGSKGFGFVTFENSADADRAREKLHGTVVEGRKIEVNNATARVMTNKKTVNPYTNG", "experiment": "EMSA; HiTS-Eq, 1 nM pool, 10 min; buffer printed only for the single-RNA assays: 10 mM Tris pH 7.5, 150 mM NaCl, 3.4 mM EDTA, 0.001% NP-40, 30 C", "conditions": "tags: His6 N-terminal (pET28a); label: 5' 32P", "procedure,_shortened": "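Relative association constants, normalised to the cognate motif, were derived by comparing read counts of each RNA species with those of the control reaction. The RNA sequenced was the free fraction, separated by 8% native PAGE after a 10 min equilibration in 50 µL of 1 nM 5′-radiolabelled RNA (7 randomized nucleotides) with increasing concentrations of purified wild-type or mutant RbFox RRM.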"}
{"binder": "B1", "binding signal": "0.00606 KA relative to UGCAUGU"}
{"binder": "B2", "binding signal": "0.00108 KA relative to UGCAUGU"}
{"binder": "B3", "binding signal": "0.0241 KA relative to UGCAUGU"}
{"binder": "B4", "binding signal": "0.0159 KA relative to UGCAUGU"}
{"binder": "B5", "binding signal": "0.0138 KA relative to UGCAUGU"}
{"binder": "B6", "binding signal": "0.0162 KA relative to UGCAUGU"}
{"binder": "B7", "binding signal": "0.00745 KA relative to UGCAUGU"}
{"binder": "B8", "binding signal": "0.000929 KA relative to UGCAUGU"}
{"binder": "B9", "binding signal": "0.000856 KA relative to UGCAUGU"}
